# Measurements as given in the supplement of paper PMC5499739.
# Whole data set: some 16,000 sequences, median “Z-score” near -0.37, cut for the highest 2% near 3.2. Some of the results follow.
# System: RBM10 RRM1-ZnF (GST-tagged construct)
# Assay: RNAcompete 7-mer binding Z-score; higher = stronger binding preference
# Summary of the method: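 GST-tagged RBM10 constructs (20 pmol) were mixed with a designed pool of 241 399 RNAs up to 41 nt (1.5 nmol), transcribed from microarray-derived DNA templates. Mixing was in 1 ml Hepes pH 7.8 buffer with KCl, NaCl, glycerol, DTT, BSA and glutathione Sepharose beads. Binding ran 30 min at 4°C, followed by four 2-min washes at 4°C, and bound RNA was identified by microarray hybridisation. Each heptamer motif received a one-sided Z-score for enrichment across probes containing it.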
row,Sequence,RNAcompete 7-mer binding Z-score
1,GACGUCU,-0.688
2,UGACGGU,1.14
3,CUAGAAG,0.000789
4,UACUACU,-0.584
5,UUCGUGG,0.527
6,CUCUUAC,-0.928
7,UCGUUUA,-0.646
8,GAUGGCU,0.748
9,CGGAGAG,0.894
10,CCCUCAC,-0.584
11,UCUCGCU,-0.717
12,CAACGAU,-0.409
13,GCCUACC,-0.568
14,UUAAACG,-0.5
15,UGACAUC,-0.542
16,GGAUAAA,1.38
17,CGGCGCA,0.0365
18,UUAGGGG,2.4
19,AAUUGCA,-0.448
20,ACCUAUU,-0.847
21,GAUGUGA,0.771
22,CCCCCCC,0.0885
23,GGGUGGU,4.8

row,Sequence,RNAcompete 7-mer binding Z-score
1,UCGGCAG,-0.126
2,AUUAGUA,-0.168
3,UAACAGU,-0.0804
4,UACCGUG,-0.35
5,GUGUACC,-0.22
6,CGGUCUG,-0.243
7,GUGUAUG,1.29
8,UACACGC,-0.691
9,CAAGUCG,-0.292
10,UUGGGUG,3.83
11,CGAAUUU,-0.795
12,CGAGGGC,1.06
13,GCAUCUG,-0.522
14,ACCAUCG,-0.623
15,UUAACAC,-0.561
16,GAUUCAG,0.017
17,CAAAACU,-0.6
18,CAGCGCG,-0.324
19,AAUUCGU,-0.548
20,UAAUCAU,-0.574
21,GGAAGUC,0.82
22,CCAGUGU,-0.6
23,GUCCACU,-0.558

row,Sequence,RNAcompete 7-mer binding Z-score
1,UCCCCAU,-0.73
2,UAAGGCU,0.183
3,AAGCCGU,-0.629
4,GCCCCUG,-0.0869
5,AGUAGUU,0.105
6,UGGCUCG,-0.119
7,ACCACAU,-0.779
8,GGAGGAU,2.46
9,UCUUUCG,-0.756
10,GCCCAUC,-0.701
11,CCGUAGU,-0.457
12,UGCGCCU,-0.532
13,UAAGGCG,1.03
14,AUACAGU,-0.00571
15,AGCGAAA,0.166
16,GGCCUUC,-0.639
17,GUGCUGA,0.761
18,GGUUCUC,-0.373
19,ACGUGAU,0.0495
20,AACCAGG,0.738
21,GGUGAUU,1.21
22,UGCACGU,-0.256
23,AUCAGGC,-0.00896

row,Sequence,RNAcompete 7-mer binding Z-score
1,UGCAGCA,-0.461
2,GGCCUCA,-0.714
3,ACGGCCU,-0.629
4,AGGGUCC,0.573
5,UUGGGGA,2.82
6,AACAAAG,-0.0609
7,UCCGCGC,-0.529
8,ACGCACC,-0.519
9,UUCAGGG,1.07
10,CCAUACA,-0.782
11,AACGAGA,-0.0804
12,AAUGUGA,0.657
13,ACUUGUC,-0.854
14,AUGUUUA,-0.311
15,GACGGCC,-0.363
16,ACAAGCA,-0.204
17,UUUUAAU,-0.633
18,AUUCAAA,-0.662
19,GUCGUCC,-0.454
20,AUAUCCU,-0.789
21,UGGAGCC,0.638
22,UCUCUAG,-0.688
23,UGUCGCC,-0.347

row,Sequence,RNAcompete 7-mer binding Z-score
1,CGUAUCC,-0.753
2,CGUACGU,-0.0577
3,GCCAUGG,0.426
4,GGAGGUA,3.28
5,GGGGCGC,1.89
6,AGAAGCU,-0.48
7,UACUCGC,-0.581
8,ACCUCAA,-0.737
9,GUGAAGG,3.74
10,CCCAGCU,-0.457
11,AUGUACA,-0.0577
12,UAUCUUU,-0.815
13,UCCACCU,-0.789
14,UAAGCGA,-0.123
15,UAGGGCU,1.42
16,AGUAAAU,-0.145
17,CGUUUCA,-0.776
18,AAAUUGA,0.03
19,GUUGACC,-0.0479
20,GCAUUUU,-0.938
21,CAAUUCA,-0.772
22,ACACCAG,-0.548
23,CCUCCCC,-0.197

row,Sequence,RNAcompete 7-mer binding Z-score
1,AUGGCCU,-0.428
2,CCGGCUA,-0.633
3,UAGAAGA,0.439
4,CCAGUGC,-0.519
5,CAGCGCA,-0.366
6,UAGGGGU,3.9
7,CCGCAGA,-0.503
8,AGCCUGG,-0.262
9,GUACACA,-0.269
10,GGCAGCC,-0.272
11,GGAAUAC,0.878
12,AUGAUAU,-0.0772
13,AAGCUGA,-0.0837
14,AAUAACG,-0.256
15,AGAUGUC,-0.444
16,CGAGCAC,-0.116
17,UCUGCUG,-0.617
18,UGUUUCA,-0.727
19,CCUUCCC,-0.548
20,ACCGUUA,-0.795
21,UCCCAGA,-0.678
22,CCUAGGA,0.199
23,CACUCGC,-0.604

row,Sequence,RNAcompete 7-mer binding Z-score
1,AGGGGGG,2.76
2,CCGCACA,-0.662
3,ACAAGAA,-0.145
4,UUCCCUC,-0.62
5,GAAAUGC,0.0528
6,GAUUAGC,0.0593
7,AGCGAAU,0.166
8,GGGCAAU,1.35
9,UUACGGA,0.186
10,AGCUUAC,-0.639
11,CAACAUG,-0.204
12,CAUUAGG,0.267
13,UAUGGUC,0.335
14,GUACCAG,-0.035
15,AGCUCGG,0.131
16,AUGUCUA,-0.698
17,UAGCAAC,-0.542
18,GUCUCCG,-0.451
19,AUUAGUC,-0.344
20,AGCGCUA,-0.431
21,UGUACCU,-0.759
22,GCAGCGU,0.254
23,GGUGUGA,2.52

row,Sequence,RNAcompete 7-mer binding Z-score
1,CCGCCAG,-0.344
2,CUAACCA,-0.698
3,GCCGUGA,-0.285
4,UACUAGG,0.612
5,CAACCGA,-0.597
6,GUUUGAG,0.391
7,CGUGGAG,1.97
8,ACCCGAA,-0.672
9,GAUCGGC,-0.0869
10,UCCCCUC,-0.428
11,CGGACCC,-0.136
12,UAGGUCC,-0.165
13,ACCGGUU,-0.305
14,CCAUGUU,-0.886
15,CACUUAG,-0.552
16,UCUACGG,-0.389
17,CCGACUG,-0.565
18,UUUAGCU,-0.746
19,CCCCUAG,-0.129
20,AUAAGUA,-0.194
21,UCUACCA,-0.779
22,AAUGUAA,0.0788
23,CAACACG,-0.457
